Some of the results follow.
T1: UNK ZnF1-6 (called full-length) (human, UniProt Q9C0B0 30-357)
T1 sequence: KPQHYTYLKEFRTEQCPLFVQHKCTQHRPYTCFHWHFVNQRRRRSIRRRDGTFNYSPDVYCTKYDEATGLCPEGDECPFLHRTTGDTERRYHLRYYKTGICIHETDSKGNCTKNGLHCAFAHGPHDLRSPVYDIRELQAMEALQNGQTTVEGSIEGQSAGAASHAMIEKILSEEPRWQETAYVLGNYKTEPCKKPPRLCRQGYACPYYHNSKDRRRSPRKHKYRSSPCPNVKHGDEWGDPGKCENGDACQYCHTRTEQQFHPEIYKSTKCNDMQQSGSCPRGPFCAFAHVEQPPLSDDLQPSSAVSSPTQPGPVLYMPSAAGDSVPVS

B1: chr7:123541454:123541562:-|3pUTR|ENSG00000128609|unk|FALSE|unique (ssRNA)
RNA: GGGAGUUCUACAGUCCGACGAUCUCCAUAGUGUCAUUUUAUUUUAGUCAUUAUUGAAUUAUACCAUUUACUCUGUUUUCUUAUAGUCUUAAUUUUAUUAUAUUUUGUUGUUACUGUAUUAUAUUUGAAAACCUUCAAAUUAGACAACAGAGGAUUGAGCAUCA
B2: chr2:227551976:227552087:+|CDS|ENSG00000173744|unk|total|mutant (ssRNA)
RNA: GGGAGUUCUACAGUCCGACGAUCUCCAUGAGCAUGCCCACAGGAUUCGGCACUCCUGCUCCCUACAGUCUUCCCACCAGCUUCCGUGGCAGCUUUCAGCAGCCUGCCUUUCCAGCCCAAGCAGCUUUCCCUCAACAGACAGCUCAACAGAGGAUUGAGCAUCA
B3: ENSG00000070961:be:win_3151|CDS|ENSG00000070961|bound_else_gene|NA|bound_elsewhere_windowed (ssRNA)
RNA: GGGAGUUCUACAGUCCGACGAUCACAUUACUCUGGGGCCAGCUUAUUUCAACAAUUCCAACUAGCCGUUUAAAAUUCCUCAAAGAAGCUGGUCAUGGAACACAAAAGGAAGAAAUACCUGAGGAGGAAUUAGCAGAGGAUGUUCAACAGAGGAUUGAGCAUCA
B4: chr17:41167230:41167584:-|three_prime_utr|ENSG00000196156|control|control|control (ssRNA)
RNA: GGGAGUUCUACAGUCCGACGAUCAUGUGGACUUCCUGAUGUCGUGAAAACAGAGGCAUGGACUGAUUUGGAAAAUAUUUUAUUAGUAUGUAUUCUCUUUUAUAGAAGUUUUUAUUCCUAUUGAAUCUGAAUUUACAGUCAAAUCAACAGAGGAUUGAGCAUCA
B5: chr6:57184343:57184440:+|3pUTR|ENSG00000112208|msi1_unk|total|mutant (ssRNA)
RNA: GGGAGUUCUACAGUCCGACGAUCUCUUCAGUUUUGUGAAUAACAAAACCCGCAAUAUUUUAAUUAUCUAUCCCGAGAUUUUUCCGAUUGAAUUCUUGUCUUGUACCCGGAUCCCGCAUAUUUCACUAUUCUGUGGAUGAAUACCAACAGAGGAUUGAGCAUCA
B6: chr10:103289619:103289731:+|3pUTR|ENSG00000148798|unk|FALSE|unique (ssRNA)
RNA: GGGAGUUCUACAGUCCGACGAUCAUGAGUGGAAAAAGCCAAGGUGUCAUUUAUGUGUCAGUUCAUUUGUGGUGAUAUAGAAUUAGCUUUUUCAUCCCCUUACCCUUAGAAUCCACGUAUUCCCCUUCCCACUAGCCUAGGUCACAACAGAGGAUUGAGCAUCA
B7: ENSG00000164951:stop:overlap|stop_codon|ENSG00000164951|stop_codon|NA|stop_codon (ssRNA)
RNA: GGGAGUUCUACAGUCCGACGAUCUUACAAUCAUUGUAGUUCAGUUCAAUUCUCAUGUUGUAGGGGCGUAUCAAAACCAAGAAUAGUGAGUGGCUCUUUCACUGGCAAUUCUCAAAUGAUAUACAUUUAAAGGGCAGAUUUUUUCAACAGAGGAUUGAGCAUCA
B8: ENSG00000198589:be:win_3151|CDS|ENSG00000198589|bound_else_gene|NA|bound_elsewhere_windowed (ssRNA)
RNA: GGGAGUUCUACAGUCCGACGAUCUCUUCUGACAUAAUAGAAGCUGUGGCUAUUUCCUCUAAUUCUUUUAUAACAACUGGCAAAGAUUCAAUGACUGUCAGUGAAGUAACUGCUUCUAUAAGUUCUCCUUCAGAAGAGGAUGCCCAACAGAGGAUUGAGCAUCA
B9: chr11:62752106:62752207:-|CDS|ENSG00000185670|msi1|FALSE|unique (ssRNA)
RNA: GGGAGUUCUACAGUCCGACGAUCGGCUCACAAUGAGGACCUGGCCAAACGCAGCAAACCAGAUCCAGAAGUGGGACCCCUUCUAGGGGUGCAGCCUCUCCCUGGCUCCCCAACAGCAGACAGACAGAGCAGCAGUGGUGGAGGCAACAGAGGAUUGAGCAUCA
B10: ENSG00000107863:be:win_4051|CDS|ENSG00000107863|bound_else_gene|NA|bound_elsewhere_windowed (ssRNA)
RNA: GGGAGUUCUACAGUCCGACGAUCGUGCAGGAGGAAAGCACAGUAGACUCCCAGCCAGUGCCAAACAUAGAUCAUUUACUCACCAACAUUGGAAGGACAGGAGUCUCCCCAGGAGAUGUAUCAGAUUCAGCUACUAGUGACUCACAACAGAGGAUUGAGCAUCA
B11: chr9:128729785:128731336:-|three_prime_utr|ENSG00000160445|control|control|control (ssRNA)
RNA: GGGAGUUCUACAGUCCGACGAUCCUCCCACGGAGUGAAGAGACAUGGGGGACUUUUGCACAACCGACGCUUUUCCUUAAUGUUAGUGAGAUAUAUAUAUAUUAUAUAUAUAUAUUUUUUUUUUGGUUAGGAAGUGUGAAGUUUCAACAGAGGAUUGAGCAUCA
B12: ENSG00000070961:be:win_1351|CDS|ENSG00000070961|bound_else_gene|NA|bound_elsewhere_windowed (ssRNA)
RNA: GGGAGUUCUACAGUCCGACGAUCAUGAAAGAUAAUAACUUAGUAAGGCAUCUGGAUGCUUGUGAAACCAUGGGAAAUGCUACAGCUAUUUGUUCAGAUAAAACAGGAACUUUGACAAUGAACAGAAUGACAGUCGUUCAAGCUCAACAGAGGAUUGAGCAUCA
B13: chr8:27733518:27733645:-|3pUTR|ENSG00000147419|unk|total|mutant (ssRNA)
RNA: GGGAGUUCUACAGUCCGACGAUCGACCUUUUGAUUUUGAAGCAGACUAAAAUCUGACCAGACCACAAUGAAAAGUAUAAAAUCCGAAACUUAAAUUCCAAGCUAAAUUUCAGCUUUGACCCACCUAACUCCAGUGAACCGGUGCAACAGAGGAUUGAGCAUCA
B14: chr4:87473334:87473774:-|three_prime_utr|ENSG00000152583|control|control|control (ssRNA)
RNA: GGGAGUUCUACAGUCCGACGAUCCUUUCCAGCAUCCUCCUCUGUUCUAACCACUUCAGAAAUAUAUGCAGCUGUGAUACUUGUAGAUUUAUAUUUAGCAAAAUGUUAGCAUGUAUGACAAGACAAUGAGAGUAAUUGCUUGACCAACAGAGGAUUGAGCAUCA

molecular target: T1, UNK ZnF1-6 (called full-length); test: nsRBNS (natural sequence RNA bind-n-seq); RBNS binding buffer (assumed for nsRBNS): 25 mM Tris pH 7.5, 150 mM KCl, 3 mM MgCl2, 0.01% Triton X-100, 500 ug/ml BSA, 20 U/ml SUPERase-In, 4 C; UNK is unkempt and MSI1 is Musashi-1; names of the RNAs are library labels; protein concentration not given here; high values mean tight binding

Row | Binder | binding signal
1 | B1 | 150 enrichment R
2 | B2 | 0.925 enrichment R
3 | B3 | 1.14 enrichment R
4 | B4 | 5.74 enrichment R
5 | B5 | 1.02 enrichment R
6 | B6 | 2.25 enrichment R
7 | B7 | 0.912 enrichment R
8 | B8 | 0.455 enrichment R
9 | B9 | 0.9 enrichment R
10 | B10 | 1.88 enrichment R
11 | B11 | 3.8 enrichment R
12 | B12 | 0.323 enrichment R
13 | B13 | 0.385 enrichment R
14 | B14 | 2.1 enrichment R

From article PMC12136788
